The other results are listed elsewhere or left out.

The target in this experiment is T1, OsWOX13 (Oryza sativa, UniProt Q5QMM3 1-267).
T1 sequence: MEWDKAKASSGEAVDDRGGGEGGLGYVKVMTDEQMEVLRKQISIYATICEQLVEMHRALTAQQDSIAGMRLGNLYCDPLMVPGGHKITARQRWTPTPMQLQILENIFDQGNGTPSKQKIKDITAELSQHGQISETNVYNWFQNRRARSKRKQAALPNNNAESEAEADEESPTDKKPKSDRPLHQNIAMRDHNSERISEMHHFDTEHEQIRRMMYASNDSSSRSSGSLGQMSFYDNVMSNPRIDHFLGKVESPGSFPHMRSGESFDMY
The experiment in a line: protein-binding microarray (RPBM); PBS, 2% BSA, 51.3 ng/ul salmon testes DNA, 50 uM zinc acetate, 200 nM TF, 25 C, 1 h; high values mean tight binding. The following applies: protein: recombinant; tags: N-terminal polyhistidine and DsRed monomer fusion (pET32a); label: CyDye5-dUTP incorporated in the synthesized complementary strand; 3' TTTTT single-stranded linker to array surface; dsDNA, one strand shown. In a few lines:
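Binding signal is reported as fluorescence intensity per feature (arbitrary units) from an Axon 4000B scanner. Incubation used 200 nM of each Ni–NTA-purified, N-terminally polyhistidine- and DsRed-fused transcription factor from E. coli BL21-CodonPlus on a double-stranded custom Agilent array for 1 h at 25 °C, with 50 µM zinc acetate in the buffer, followed by washing.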
Regarding “TTAATTGATCACATATTAATGGGCAACGCTGTTTTCCATGCGGAGTCACCTAGTGCAG”, the binding signal was 63600 fluorescence intensity (a.u.).

Regarding “TAACAACACATTAATTAGTACATCTTGCATAAGCATAAATCGGAGTCACCTAGTGCAG”, the binding signal was 5740 fluorescence intensity (a.u.).

Turning to “AAGCTTAACACAATTAATTTCCTCGCAAAACATCTCACGCCGGAGTCACCTAGTGCAG”, the binding signal was 8760 fluorescence intensity (a.u.).

In the case of “ATCAAATAATTACCTTTATCTGCAATATGCTAGGTCTTAGCGGAGTCACCTAGTGCAG”, the binding signal is 10700 fluorescence intensity (a.u.).

Turning to “TCCATGATTATGGCTTCTAGATGGATACTATACGTATGTACGGAGTCACCTAGTGCAG”, the binding signal is 23700 fluorescence intensity (a.u.).

With “TTGTGATTAAGTTAAGTAGAAAGGAAAATAGGACCGTGGACGGAGTCACCTAGTGCAG”, the binding signal is 24300 fluorescence intensity (a.u.).

With “AAGGTAAATAATTGGCGGTAGAAACGTTCAAGCCCACCACCGGAGTCACCTAGTGCAG”, the binding signal was 9040 fluorescence intensity (a.u.).

Consider “TGGCAATGATTTATACTTCAATCATAATTGTTTGCTTAGGCGGAGTCACCTAGTGCAG”, for which the binding signal was 24000 fluorescence intensity (a.u.).

Take “CACCAGATTGTTCATCACCTTACATGTGGTTGTTGGAAATCGGAGTCACCTAGTGCAG”: the binding signal is 4540 fluorescence intensity (a.u.).

For “TGTCAATCAAATATACCTATACAACAAAATACAAGCCACCCGGAGTCACCTAGTGCAG”, the binding signal is 16400 fluorescence intensity (a.u.).

For “AGACGGAATTACCACCCAAAGATTTGTCAATCTCTCAAGCCGGAGTCACCTAGTGCAG”, the binding signal was 4310 fluorescence intensity (a.u.).

Turning to “ATCATAATTAAATATATTTTCATAATAAATTTGTCTTTAGCGGAGTCACCTAGTGCAG”, the binding signal is 31000 fluorescence intensity (a.u.).

For “ACCGGTAAATTAATTAGCAAACACAGTAGCATGATGAGATCGGAGTCACCTAGTGCAG”, the binding signal was 27000 fluorescence intensity (a.u.).

For “CGTTTTCATTAATGACCTAATCTCCAATTAAACTCCATATCGGAGTCACCTAGTGCAG”, the binding signal is 14400 fluorescence intensity (a.u.).

For the sequence “CTTTATAAATTGTGTCATCTACTCATGTGTGGTAGGTCAACGGAGTCACCTAGTGCAG”, the binding signal is 5450 fluorescence intensity (a.u.).

For the sequence “TTATAACTGATTTATACTATCCTTTTGAGTTTTGGCAGATCGGAGTCACCTAGTGCAG”, the binding signal was 26300 fluorescence intensity (a.u.).

Turning to “AATAATGAGATTTTAATTAGGCAGTGGTAACACATAGTAACGGAGTCACCTAGTGCAG”, the binding signal is 12600 fluorescence intensity (a.u.).

With “GATGATTTTGGCTTTGGGAAAGATGGTTTGTGCCATGCGACGGAGTCACCTAGTGCAG”, the binding signal is 4170 fluorescence intensity (a.u.).

Turning to “TAATTTCATCTTGATGGACACGTGGTTTGTCGATGTACACCGGAGTCACCTAGTGCAG”, the binding signal is 3720 fluorescence intensity (a.u.).

For the sequence “GGTGTGATAGAATGGGATTAATCCGAAGCGCCGCCAATGTCGGAGTCACCTAGTGCAG”, the binding signal is 21000 fluorescence intensity (a.u.).

Take “ACATCATTAATCAATCTGTAATTAATCCACCATAATTTAACGGAGTCACCTAGTGCAG”: the binding signal is 10800 fluorescence intensity (a.u.).

Consider “ACGGGGTTGCGGTAATTTTAATTGGGCCGAAATGTGATTCCGGAGTCACCTAGTGCAG”, for which the binding signal is 4130 fluorescence intensity (a.u.).

“CTAGCGAACAAATTGATCCCTTGCAACTGTCCCATCGTTACGGAGTCACCTAGTGCAG”: the binding signal is 5650 fluorescence intensity (a.u.).

Regarding “GTCTGATTTATGTTCATTCCTATAGGTTTATTCTGGTGACCGGAGTCACCTAGTGCAG”, the binding signal is 36500 fluorescence intensity (a.u.).

With “TAATAATATAATAGATAATAGATAGATGATTTACCAAGGCCGGAGTCACCTAGTGCAG”, the binding signal was 23100 fluorescence intensity (a.u.).

With “TAAATTAAATTGCTACGTAAGTGCCACGTCATATTAAGATCGGAGTCACCTAGTGCAG”, the binding signal was 16000 fluorescence intensity (a.u.).

Consider “CATGATTTGACAAAATTCAGTTGAATGCAAAATTCATACCCGGAGTCACCTAGTGCAG”, for which the binding signal is 36300 fluorescence intensity (a.u.).

For the sequence “AGTGGGTCGCTGATTAATCATTCGTCGTTGTGCAGAAGCACGGAGTCACCTAGTGCAG”, the binding signal is 3990 fluorescence intensity (a.u.).

For the sequence “GTCCCAATTTAAATGCAACCATGATTTTCTGTGTCCAACTCGGAGTCACCTAGTGCAG”, the binding signal was 11800 fluorescence intensity (a.u.).

“ACATCGAATATCCAATCAATTTAACCTGCAACCAACTTTTCGGAGTCACCTAGTGCAG”: the binding signal was 12000 fluorescence intensity (a.u.).

Take “GAGATGTATAAATTTATTAAAATAGGAAAGTAATGCGGTGCGGAGTCACCTAGTGCAG”: the binding signal is 6500 fluorescence intensity (a.u.).

In the case of “ACGATGACTGGTTTTCGGGTTCAGAGGTGTAATTTGGTCGCGGAGTCACCTAGTGCAG”, the binding signal is 11600 fluorescence intensity (a.u.).

Consider “TTCTAACAATGCCAGTAATTTGCGTCCTAATGTTGCTCATCGGAGTCACCTAGTGCAG”, for which the binding signal was 4300 fluorescence intensity (a.u.).

On to “CAAAACCTATAGTTTTGTGATAAATAAAGATATTAAATGTCGGAGTCACCTAGTGCAG”, for which the binding signal is 23700 fluorescence intensity (a.u.).

With “GCTAAATAGGAAATGTAAACCCAGGTGCTTGTTGTAGCATCGGAGTCACCTAGTGCAG”, the binding signal was 3650 fluorescence intensity (a.u.).

For “TTTACTATGATTGTTTAGGATCCTACTTGAGACCACATACCGGAGTCACCTAGTGCAG”, the binding signal was 17800 fluorescence intensity (a.u.).

As to “TTGAACATTAACAATCACACACCAATAATTTATCTGCATTCGGAGTCACCTAGTGCAG”, the binding signal is 8280 fluorescence intensity (a.u.).

Consider “GTGTAGGTTGGTAGTGATTGGGTCCAGATTGGTGGCTCAGCGGAGTCACCTAGTGCAG”, for which the binding signal is 9330 fluorescence intensity (a.u.).

Take “AGAGTTGTGATTGGATGAGTAGTGCAGATATGTGGGAAAACGGAGTCACCTAGTGCAG”: the binding signal was 21600 fluorescence intensity (a.u.).

For the sequence “AATTTAATTAACTTCATATTTGGCATTACAGGAAGCTATGCGGAGTCACCTAGTGCAG”, the binding signal was 28000 fluorescence intensity (a.u.).

Regarding “AAATTGTAATTGGCAACCAGCACATGAACCACTGGGTTTTCGGAGTCACCTAGTGCAG”, the binding signal was 4840 fluorescence intensity (a.u.).

As to “CTTTATGCAATGATTGGGAGGAATGTGAAGAGGAGAAAGACGGAGTCACCTAGTGCAG”, the binding signal was 11900 fluorescence intensity (a.u.).

The record behind these values is publication PMC7819943, “Rice protein-binding microarrays: a tool to detect cis-acting elements near promoter regions in rice”.
